# Source: PubChem BioAssay AID686979 (National Center for Advancing Translational Sciences (NCATS), 2013)
# “And” between values parts separate entries of the source, which are not always exact repeats. Equal entries are not always repeated. The campaign covered roughly 420,000 compounds. About 50,000 (12%) were called active. This list was built around the results that the source calls inconclusive (neither active nor inactive); the mix of calls is not that of the screen. Calls follow the shape of the dose curve; as a rule, active = well fitted inhibition curve with a large enough effect; inconclusive = small, poorly fitted or top-dose-only effect; inactive = flat fitted curve, though single readings scatter. Where the call is inconclusive, the potency comes from a doubtful curve fit.
# Assay: qHTS for Inhibitors of human tyrosyl-DNA phosphodiesterase 1 (TDP1): qHTS in cells in presence of CPT; also: nearly all actives have a fitted effect of over 55% in size
# Conditions: chicken DT40 Tdp1-/-;hTDP1 cells + 20 nM CPT, ATP luminescence, 48 h; activity change, negative = growth inhibition: at 46.2 µM (top of the series)
# In short: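 Chicken DT40 Tdp1-/- cells stably complemented with human TDP1 were seeded at 400 cells/well in medium containing 20 nM camptothecin, exposed to pin-transferred compounds, and grown at 37 °C for at least 48 hr. Viability was read as ATP luminescence.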
# % is scaled to controls: 0 for no effect and ±100 for the full control effect; potency is read from the fitted curve at half-maximal effect; tags tell the direction and shape of the fitted curve.
SMILES,Potency,"activity change, negative = growth inhibition"
Cn1c(=O)c2c(nc(N3CCCCCC3)n2CCSc2nc3ccccc3o2)n(C)c1=O,active: 7.31 µM,
C=CCn1c(NCCO)nc2c1c(=O)n(C)c(=O)n2C,,inconclusive: -30% [inhibitor]
O=C(Nc1cccc(C(F)(F)F)c1)c1cccnn1,inactive,
O=C(NCC(c1ccco1)N1CCCCC1)c1ccc2c(c1)S(=O)(=O)c1ccccc1C2=O (stereo not given),"inconclusive: 29.1 µM [inhibitor, single point]",
COc1ccc(-c2c(C#N)c(C)nc3c2C(=O)c2ccccc2-3)cc1,inactive,
O=C(O)C(Nc1nc(C(F)(F)F)nc2ccccc12)c1ccccc1 (stereo not given),inactive,
Cc1ccc(CN2CCC(c3cc(-c4cccs4)n[nH]3)CC2)cc1,"inconclusive: 25.9 µM [inhibitor, single point]",
O=C(CCNS(=O)(=O)c1cccs1)N1CCN(c2ccc(F)cc2)CC1,"inconclusive: 29.1 µM [inhibitor, single point]",
COc1ccccc1-c1cnc(C(O)c2c(C)cccc2C)[nH]1 (stereo not given),"inconclusive: 20.6 µM [inhibitor, single point]",
CCOC(=O)c1oc2ccc(Br)cc2c1NC(=O)CN1CCN(C)CC1,"inconclusive: 29.1 µM [inhibitor, single point]",
CC(C)C(=O)N1CCC2(CC1)Oc1ccc(Cl)cc1C(=O)C21CC(c2ccc(Cl)cc2)=NO1 (stereo not given),"inconclusive: 18.4 µM [inhibitor, single point]",
Cc1cccc(-c2noc(CCCC(=O)NC3CCCC3)n2)c1,"inconclusive: 1.3 µM [inhibitor, full curve]",
O=C(Cn1nc(-c2ccccc2Cl)ccc1=O)Nc1ccccc1-c1ccccc1,"inconclusive: 0.651 µM [inhibitor, full curve, poor fit]",
Cc1ncc([N+](=O)[O-])n1CC(=O)Nc1cccc(C(F)(F)F)c1,inactive,
Cc1cccnc1C(NC(=O)C1CCN(CCOc2ccc(F)cc2)CC1)c1ccc(F)cc1 (stereo not given),"inconclusive: 20.6 µM [inhibitor, single point]",
Cn1c(=O)c2c(nc(N/N=C/c3ccc(OC(=O)c4ccco4)cc3)n2Cc2ccccc2Cl)n(C)c1=O,active: 6.51 µM,
Cc1ccc(S(=O)(=O)Cc2nc(-c3ccc(C(=O)NCc4ccccc4C)cc3)oc2C)cc1,"inconclusive: 29.1 µM [inhibitor, single point]",
COc1ccc(Cn2ccn(Cc3cccc(Cl)c3)c(=O)c2=O)cc1,"inconclusive: 23.1 µM [inhibitor, single point]",
CCOc1ccc(-c2nonc2NC(=O)c2oc3ccc(C)cc3c2C)cc1OCC,"inconclusive: 7.31 µM [inhibitor, partial curve]",
CCOC1=C2[C@H](c3ccccc3Cl)N(S(=O)(=O)c3ccc(C)cc3)C[C@H]2C(C#N)(C#N)C(C#N)(C#N)C1,active: 4.61 µM,
COc1ccccc1N(CC(=O)N/N=C/c1ccc(OCC(=O)NCc2ccco2)cc1)S(=O)(=O)c1ccc(C)cc1,"inconclusive: 29.1 µM [inhibitor, single point]",
CC(=O)c1ccc(NC(=O)C2=CC(c3ccc(C)cc3)=NS(=O)(=O)N2C)cc1,active: 8.2 µM,
CC1CCCC(C)N1C(=O)CN1c2cccc3cccc(c23)S1(=O)=O (stereo not given),"inconclusive: 20.6 µM [inhibitor, single point]",
CCCn1cc(S(=O)(=O)c2ccc(OC)cc2)c(=O)c2cc(F)c(N3CCCC(C)C3)cc21 (stereo not given),"inconclusive: 16.4 µM [inhibitor, single point]",

SMILES,Potency,"activity change, negative = growth inhibition"
Cc1ccc(NC(=O)Cn2cccc2)cc1C,inactive,
COc1ccc(-c2ccc(-c3noc(-c4ccccc4C)n3)c(OC)n2)cc1,"inconclusive: 23.1 µM [inhibitor, single point]",
CCCN1CCC2(CC1)C(C#N)=C(N)Oc1c2sc2nc(C)cc(C)c12,"inconclusive: 16.4 µM [inhibitor, single point]",
CC(NC(=O)Nc1ccc([N+](=O)[O-])cc1)C(c1cccs1)N1CCCC1 (stereo not given),inactive,
COc1ccc(S(=O)(=O)Cc2ccc(C(=O)N3CCN(c4ccccn4)CC3)o2)cc1,"inconclusive: 16.4 µM [inhibitor, partial curve, poor fit]",
CCOc1cc(/C=C2\SC(=NC)N(C)C2=O)cc(Cl)c1OC(C)=O,"inconclusive: 23.1 µM [inhibitor, single point]",
O=C1c2ccccc2C(=O)N1CCCCSc1nnc(-c2ccc(OC(F)F)cc2)o1,"inconclusive: 29.1 µM [inhibitor, single point]",
CCN(CC)c1ccc(/C=N/N=C(c2ccccc2)c2ccccc2)c(O)c1,"inconclusive: 18.4 µM [inhibitor, single point]",
CCCCn1c(N)c(N(CC(C)C)C(=O)c2c(-c3ccccc3)noc2C)c(=O)[nH]c1=O,inactive,
CCOCCCNC(=O)c1ccc(NC(C)=O)cc1,inactive,
c1ccc(-c2n[nH]c(-c3ccccn3)n2)nc1,"inactive and inconclusive: 18.4 µM [inhibitor, single point]",
CCOc1ccc2nc(NC(=O)c3cnc(C)cn3)sc2c1,active: 14.6 µM,
CCCCCOC(=O)CSc1nc2sc3c(c2c(=O)n1-c1ccccc1)CC(C)(CC)OC3 (stereo not given),"inconclusive: 29.1 µM [inhibitor, single point]",
CCc1cccc(NC(=O)CCc2c(C)nn(-c3ccc(N4CCOCC4)nn3)c2C)c1,"inconclusive: 20.6 µM [inhibitor, partial curve]",
CCOc1cc(C(=O)Nc2ccc(S(=O)(=O)N3CCCCC3)cc2)ccc1OCC(=O)N1CCOCC1,"inconclusive: 6.51 µM [inhibitor, single point]",
O=C(Nc1ccccc1)c1cccnc1N1CCCC1,,inconclusive: -35.3% [inhibitor]
O=C(COc1ccc(Cl)cc1)NCCCn1ccnc1,"inconclusive: 25.9 µM [inhibitor, single point]",
O=C(Nc1nc2c(s1)C(=O)CCC2)c1ccccc1,inactive,
CSc1cc(CS(=O)(=O)c2ccccc2)nc(-c2ccccc2)n1,inactive,
COC(=O)c1c(C)[nH]c(C(=O)/C=C/c2ccc(C)cc2)c1C,inactive,
CC1(C(=O)NCc2cccc3ccccc23)CCN1Cc1cc2ccccc2o1 (stereo not given),"inconclusive: 25.9 µM [inhibitor, single point]",
CC(C)OC(=O)c1cc2c(ccn2C)n1CC(=O)N(Cc1ccccc1)c1ccc(F)cc1,active: 16.4 µM,
CCC(C)c1c(O)nc(SCC(=O)c2ccccc2)[nH]c1=O (stereo not given),"inconclusive: 29.1 µM [inhibitor, single point]",
CCOc1ccc(-c2nnn(CC(=O)c3cc(OC)ccc3OC)n2)cc1,"inconclusive: 29.1 µM [inhibitor, single point]",

SMILES,Potency,"activity change, negative = growth inhibition"
CCCCN(Cc1nc2ccccc2c(=O)[nH]1)C(=O)c1nn(C)c(=O)c2ccccc12,"inconclusive: 29.1 µM [inhibitor, single point]",
COc1cc(C(c2c(C)[nH][nH]c2=O)c2c(C)[nH][nH]c2=O)ccc1OC(C)C,inactive,
C=C(C)C1Cc2c(C)nn(-c3ccccn3)c2C1 (stereo not given),"inconclusive: 29.1 µM [inhibitor, single point]",
Cc1cccc(-c2noc(Cc3ccc(Cl)cc3)n2)c1,"inconclusive: 25.9 µM [inhibitor, single point]",
Cc1cccc(CSc2nc(-c3cccc(C)c3)nc3c2Cc2c(CO)cnc(C)c2O3)c1,"inconclusive: 29.1 µM [inhibitor, single point]",
O=C(NCCCn1ccnc1)c1cc(Br)c(Br)s1,inactive,
COc1cccc(CN2CCC2(C)C(=O)Nc2cccc(Oc3ccccc3)c2)c1OC (stereo not given),active: 23.1 µM,
CCOC(=O)C1=C[C@@H](C(C)C)N(S(=O)(=O)c2ccc(C)cc2)[C@H]1c1ccc(C(F)(F)F)cc1,"inconclusive: 18.4 µM [inhibitor, single point]",
Cc1cc(-c2n[nH]c(=S)n2-c2ccc(C)c(C)c2)no1,inactive,
Cc1ccccc1-n1c(-c2ccc3ccccc3n2)n[nH]c1=S,inactive,
O=C(O)[C@H]1CCCN1S(=O)(=O)c1cccc2cccnc12,inactive,
CCCCC1Cc2[nH][nH]c(=O)c2C(c2ccc(Cl)cc2)O1 (stereo not given),inactive,
CCOc1cc(/C=C2\SC(=N)N(c3nonc3N)C2=O)ccc1OCCN1CCOCC1,active: 13 µM,
Cc1ccc(CNS(=O)(=O)c2c(C)[nH]c(=O)[nH]c2=O)cc1,inactive,
CCOc1ccccc1NC(=O)Cn1c(=O)c(OCC)nc2cnccc21,inactive,
CCOC(=O)C1CCN(C(=O)CN(c2cc(Cl)ccc2OC)S(=O)(=O)c2ccccc2)CC1,"inconclusive: 20.6 µM [inhibitor, single point]",
CN(C)CCNC(=O)c1cccc(-c2cc(NC=O)c3ncc(-c4cccc(C(F)(F)F)c4)n3c2)c1,active: 3.26 µM,
O=c1c(-c2ccc(F)cc2)nc2cnc(N3CCNCC3)nc2n1-c1ccccc1,active: 14.6 µM,
Cc1cc(C(O)c2ncc(-c3ccccc3C)[nH]2)ccc1F (stereo not given),"inconclusive: 29.1 µM [inhibitor, single point]",
Cn1cc(CN2CCC(CO)(CCCc3ccccc3)CC2)c(-c2ccccc2)n1,active: 16.4 µM,
COC(=O)CC(=O)CSc1nc(C)cc(C)c1C#N,active: 29.1 µM,
C[C@@H]1CCCCO[C@H](CN(C)C)[C@H](C)CN([C@@H](C)CO)C(=O)c2cc(NC(=O)Nc3ccc(C(F)(F)F)cc3)ccc2O1,"inconclusive: 29.1 µM [inhibitor, single point]",
